The record followed here is ChEMBL document CHEMBL4888484, “Replenishing the malaria drug discovery pipeline: Screening and hit evaluation of the MMV Hit Generation Library 1 (HGL1) against asexual blood stage Plasmodium falciparum ,using a nano luciferase reporter read-out” (2022).

The whole screen tested about 150,000 compounds, of which about 540 (0.36%) showed an effect of 50% or more. Some of the results follow.

By % Inhibition is commonly meant the drop in the measured response relative to a control, in per cent.

This assay concerns Plasmodium falciparum. Kind of assay: Primary screen in NF54 nanoGlo assay, in single point, at 2uM, 72h; a lower Z score goes with more inhibition. Format: functional, Erythrocyte. Particulars: timepoint 72 hour.
With `Cc1c[nH]c(CN2CCN(c3nc[nH]n3)CC2)c(C)c1=O`, the “% Inhibition” value was -9% and the Z score turned out to be 1.66.

With `CCOC(=O)c1cc(NC(=O)c2cccc(Cl)c2F)[nH]n1`, the “% Inhibition” value is reported as -3% and the Z score was determined as 0.29.

As for `Cc1nc(N2CCCC(NC3CCc4ccccc43)CC2)nc2cc(S(C)(=O)=O)ccc12` (centres undefined), the “% Inhibition” value was -15% and the Z score is 1.97.

Take `COc1ccc([C@H]2C[C@@H]2C(=O)N2CC(NC(=O)C3CCC3)C2)cc1`: the “% Inhibition” value is recorded as -3% and the Z score was found to be 0.43.

For `CCOC(=O)c1cccnc1-c1ccc2[nH]ccc2c1`, the “% Inhibition” value is -7% and the Z score is 1.24.

On to `COc1nn(C)cc1NC(=O)N1CCC[C@H](Cc2nc(C)no2)C1`, for which the “% Inhibition” value came to 3% and the Z score is -0.35.

For `Cc1nonc1CN(C)Cc1cnn(C(C)C)c1`, the “% Inhibition” value turned out to be 3% and the Z score is -0.48.

Consider `Cc1ccc(OC2CN([C@@H](C)CS(C)(=O)=O)C2)cc1`, for which the “% Inhibition” value was -10% and the Z score stood at 1.88.

As for `Cc1ccc(O[C@H]2CCN(C(=O)CCS(=O)(=O)c3ccccc3)C2)nn1`, the “% Inhibition” value was -8% and the Z score was found to be 0.96.

As to `Cc1cc(NC[C@H](O)C(N)=O)nc(C2CC2)n1`, the “% Inhibition” value is 9% and the Z score is given as -1.15.

Turning to `CN(C)C(=O)NCC(=O)NCc1cccnc1N`, the “% Inhibition” value is -5% and the Z score worked out at 0.78.

`CN(CC[C@H]1CN(C(=O)N2CCOCC2)CC[C@H]1CC(=O)O)c1ccccc1`: the “% Inhibition” value is listed as -1% and the Z score is recorded as 0.12.

`Cc1cc(CN2CCNC(=O)C2)nc(-c2ccc(Cl)cc2)n1`: the “% Inhibition” value is given as -7% and the Z score is given as 1.33.

Regarding `Cc1ccccc1CS(=O)(=O)c1nnc([C@@H](NC(=O)OC(C)(C)C)C(C)C)o1`, the “% Inhibition” value is reported as -15% and the Z score stood at 1.3.

On to `CN1CCCCC1CN1CCN(C(=O)C2CC3CCC2C3)CC1` (centres undefined), for which the “% Inhibition” value is given as -8% and the Z score is 1.01.

As for `COC[C@H]1CN(C2CCC2)CC12CCN(C(=O)C1CCCC1)CC2`, the “% Inhibition” value is recorded as -4% and the Z score is listed as 0.44.

Consider `COC(OC)C(=O)N1CCN(Cc2cn3cc(C)ccc3n2)CC1`, for which the “% Inhibition” value was -2% and the Z score is recorded as 0.24.

Take `Cc1ccc(S(=O)(=O)/N=C(/CN2CCCC2)N2CCN(S(=O)(=O)c3ccc(C)cc3)[C@H]2c2ccc(N(C)C)cc2)cc1`: the “% Inhibition” value is on record as -2% and the Z score came to 0.41.

On to `O=c1cc([O-])[n+]2c3n1CCCN3CCC2`, for which the “% Inhibition” value was -6% and the Z score was determined as 0.92.

In the case of `C[C@@H](C1CC1)N(CC(F)(F)F)C(=O)Cn1cnc2c1c(=O)n(C)c(=O)n2C`, the “% Inhibition” value is listed as -5% and the Z score turned out to be 0.75.

For `COc1ccc(NC(=O)Cn2c(=O)ccc3cc(S(=O)(=O)N4CCCC4)ccc32)cc1OC`, the “% Inhibition” value is -11% and the Z score turned out to be 1.36.

Regarding `Cc1ccc(S(=O)(=O)N2CCC(O)(c3ccnn3C)CC2)cc1`, the “% Inhibition” value came to 4% and the Z score is reported as -0.84.

For the compound `COc1cc2c(cc1OC)CN(C1CCC(C)C1)CC2` (centres undefined), the “% Inhibition” value amounted to 5% and the Z score is -0.81.

With `CCC(C(N)=O)N1CCC(F)(F)C(C)C1` (centres undefined), the “% Inhibition” value is -12% and the Z score came out at 1.63.

On to `COc1ccccc1[C@@H]1CNC(=O)c2nc(C3(Cn4ccnc4)CC3)[nH]c2C1`, for which the “% Inhibition” value was -4% and the Z score is 0.7.

As to `Cc1[nH]c2c(C(F)(F)F)cccc2c1CCNC(=O)CCCc1cn(Cc2ccccc2)c2ccccc12`, the “% Inhibition” value is 0% and the Z score was 0.

For `Cc1nc(COc2ccc(Cl)cc2C)n([C@H]2CCS(=O)(=O)C2)n1`, the “% Inhibition” value is -16% and the Z score was 1.57.

Turning to `N#Cc1ccc(COCC2CCN(CC(=O)N3CCOCC3)CC2)cc1`, the “% Inhibition” value is -5% and the Z score turned out to be 0.52.

Turning to `CCN(C)c1ccccc1NC(=O)N1CC2CC=CCC2C1` (centres undefined), the “% Inhibition” value was 4% and the Z score is -0.57.

As to `CC1(C)Cc2cc(NC(=O)C3(O)CCCC3)ccc2O1`, the “% Inhibition” value was found to be 11% and the Z score is -1.78.

In the case of `O=C(NCCc1cccs1)[C@H]1CCCN(c2nccn3nc(-c4ccccc4Cl)cc23)C1`, the “% Inhibition” value is -6% and the Z score is reported as 0.7.

On to `CCNC(=O)CNCc1ccc(C)cc1Br`, for which the “% Inhibition” value was -13% and the Z score was 1.51.

With `CC(C)=CCC[C@H](C)N(C)CCn1ccnc1`, the “% Inhibition” value is given as 2% and the Z score is on record as -0.21.

Turning to `C[C@@H](c1ccon1)N(C)C(=O)c1cnc2ccccc2n1`, the “% Inhibition” value is recorded as -7% and the Z score was 1.31.

`CCCCC(=O)NCC1(N2CCCCC2)CCN(C)CC1`: the “% Inhibition” value is recorded as -3% and the Z score is listed as 0.46.

For the compound `O=C(ON1C(=O)CCC1=O)c1cccc(F)c1`, the “% Inhibition” value is on record as 34% and the Z score is on record as -3.87.

For the compound `O=C(c1ccc2[nH]ccc2c1)N1CCN(C(=O)c2nnn3c2CO[C@H](c2ccccc2)C3)CC1`, the “% Inhibition” value is reported as -21% and the Z score came out at 1.91.

Turning to `N[C@@H](Cc1ccccc1)C(=O)N1CCN(C(=O)c2ccccc2)CC1`, the “% Inhibition” value came out at 4% and the Z score was -0.46.

For the compound `CC(C)c1noc([C@H](C)NC(=O)C(=O)c2cccn2C)n1`, the “% Inhibition” value is listed as -3% and the Z score is 0.38.

`COc1ccccc1C(=O)N1CCc2nc(N3CCc4ccccc4C3)nc(N(C)C)c2C1`: the “% Inhibition” value is recorded as -16% and the Z score was found to be 2.04.

As for `Cc1cc(CNC(=O)COc2ccc(Cl)cc2)nc(N(C)C)n1`, the “% Inhibition” value is listed as 3% and the Z score is given as -0.48.

Turning to `COC(=O)[C@](O)(CC(=O)Nc1ccccc1Cl)C(F)(F)F`, the “% Inhibition” value is 2% and the Z score is -0.35.
